According to publication PMC7363125:
These are yes or no findings as the source states them, for the method shown. Binding seen in cells or lysates may run through a third protein. Some binding calls cover weakened binding; strength is not graded here. Sequences can lack the tags named with a protein.

T1: GST-PLEKHA7 WW1 + WW2 domain (1-162) T35A + H75A (human) (UniProt Q6IQ23)
T1 sequence: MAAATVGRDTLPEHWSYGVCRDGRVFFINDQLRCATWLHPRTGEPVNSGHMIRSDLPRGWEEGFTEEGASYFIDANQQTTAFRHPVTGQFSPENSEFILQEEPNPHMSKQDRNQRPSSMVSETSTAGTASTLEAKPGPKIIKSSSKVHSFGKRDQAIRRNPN

T2: GST-PLEKHA7 WW1 + WW2 domain (1-162) D30A (human) (UniProt Q6IQ23)
T2 sequence: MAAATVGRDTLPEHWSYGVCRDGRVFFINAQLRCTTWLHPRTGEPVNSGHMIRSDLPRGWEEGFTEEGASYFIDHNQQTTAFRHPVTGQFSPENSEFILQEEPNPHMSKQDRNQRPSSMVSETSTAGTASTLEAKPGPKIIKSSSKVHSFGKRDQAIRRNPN

T3: GST-PLEKHA7 WW1 + WW2 domain (1-162) T35A + D74A (human) (UniProt Q6IQ23)
T3 sequence: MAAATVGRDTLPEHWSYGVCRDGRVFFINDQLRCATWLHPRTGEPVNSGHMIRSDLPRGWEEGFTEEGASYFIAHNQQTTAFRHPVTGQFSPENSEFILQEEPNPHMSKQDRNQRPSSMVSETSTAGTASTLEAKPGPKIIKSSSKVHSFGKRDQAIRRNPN

T4: GST-PDZD11 full-length P21A,P22A (human) (UniProt Q5EBL8)
T4 sequence: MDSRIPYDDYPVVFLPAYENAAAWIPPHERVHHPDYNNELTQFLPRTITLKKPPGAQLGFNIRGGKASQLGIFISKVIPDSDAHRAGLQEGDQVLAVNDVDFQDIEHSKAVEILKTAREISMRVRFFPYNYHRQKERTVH

T5: GST-PDZD11 full-length P16,21,22,26,27A (human) (UniProt Q5EBL8)
T5 sequence: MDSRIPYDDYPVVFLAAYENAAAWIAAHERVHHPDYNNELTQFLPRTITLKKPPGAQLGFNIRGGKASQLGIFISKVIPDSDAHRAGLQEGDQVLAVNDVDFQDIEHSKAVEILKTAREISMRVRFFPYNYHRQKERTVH

T6: GST-PDZD11 N-term 1-30 P21,22,26,27A (human) (UniProt Q5EBL8)
T6 sequence: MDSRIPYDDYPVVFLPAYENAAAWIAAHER

T7: GST-PDZD11 Δ9 (deletion of 9 N-terminal residues of full-length PDZD11) (human) (UniProt Q5EBL8)
T7 sequence: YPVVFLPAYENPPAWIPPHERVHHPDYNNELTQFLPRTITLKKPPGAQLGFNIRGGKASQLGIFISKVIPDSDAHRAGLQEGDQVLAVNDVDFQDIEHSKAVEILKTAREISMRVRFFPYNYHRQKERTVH

T8: GST-PDZD11 N-term 1-30 P26A + P27A (human) (UniProt Q5EBL8)
T8 sequence: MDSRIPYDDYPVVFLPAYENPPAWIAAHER

T9: GST-PDZD11 N-term 1-30 P21A,P22A (human) (UniProt Q5EBL8)
T9 sequence: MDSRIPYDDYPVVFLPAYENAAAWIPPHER

T10: GST-PDZD11 N-term 1-30 P16,26,27A (human) (UniProt Q5EBL8)
T10 sequence: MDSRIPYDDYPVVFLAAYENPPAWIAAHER

T11: GST-PDZD11 full-length P16A (human) (UniProt Q5EBL8)
T11 sequence: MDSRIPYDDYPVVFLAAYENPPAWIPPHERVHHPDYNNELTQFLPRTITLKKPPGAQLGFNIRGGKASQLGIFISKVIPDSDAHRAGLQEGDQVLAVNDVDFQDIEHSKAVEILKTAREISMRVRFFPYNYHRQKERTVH


Columns and labels:
[1] = target: T1, GST-PLEKHA7 WW1 + WW2 domain (1-162) T35A + H75A (human); assay: pull-down; 5 ug GST-PLEKHA7 WW bait (E. coli) coupled to GSH-Sepharose beads, washed, incubated 1 h at 4 °C with normalized HEK cell lysate holding PDZD11-HA or CFP-HA; immunoblot with anti-HA; only the target purified
[2] = target: T2, GST-PLEKHA7 WW1 + WW2 domain (1-162) D30A (human); assay: as above
[3] = target: T3, GST-PLEKHA7 WW1 + WW2 domain (1-162) T35A + D74A (human); assay: as above
[4] = target: T4, GST-PDZD11 full-length P21A,P22A (human); assay: pull-down; GST-PDZD11 baits (full-length, truncated, 1-30, mutants; E. coli) on GSH-Sepharose beads, incubated 1 h at 4 °C with insect cell lysate holding full-length PLEKHA7-His; immunoblot with anti-His; only the target purified
[5] = target: T5, GST-PDZD11 full-length P16,21,22,26,27A (human); assay: as above
[6] = target: T6, GST-PDZD11 N-term 1-30 P21,22,26,27A (human); assay: as above
[7] = target: T7, GST-PDZD11 Δ9 (deletion of 9 N-terminal residues of full-length PDZD11) (human); assay: as above
[8] = target: T8, GST-PDZD11 N-term 1-30 P26A + P27A (human); assay: as above
[9] = target: T9, GST-PDZD11 N-term 1-30 P21A,P22A (human); assay: as above
[10] = target: T10, GST-PDZD11 N-term 1-30 P16,26,27A (human); assay: as above
[11] = target: T11, GST-PDZD11 full-length P16A (human); assay: as above

Binder	binding [1]	binding [2]	binding [3]	binding [4]	binding [5]	binding [6]	binding [7]	binding [8]	binding [9]	binding [10]	binding [11]
PDZD11-HA (human) full-length (protein, UniProt Q5EBL8 1-140) MDSRIPYDDYPVVFLPAYENPPAWIPPHERVHHPDYNNELTQFLPRTITLKKPPGAQLGFNIRGGKASQLGIFISKVIPDSDAHRAGLQEGDQVLAVNDVDFQDIEHSKAVEILKTAREISMRVRFFPYNYHRQKERTVH	no binding	binds	binds								
PLEKHA7-His, full-length (protein, UniProt Q6IQ23 1-1121) MAAATVGRDTLPEHWSYGVCRDGRVFFINDQLRCTTWLHPRTGEPVNSGHMIRSDLPRGWEEGFTEEGASYFIDHNQQTTAFRHPVTGQFSPENSEFILQEEPNPHMSKQDRNQRPSSMVSETSTAGTASTLEAKPGPKIIKSSSKVHSFGKRDQAIRRNPNVPVVVRGWLHKQDSSGMRLWKRRWFVLADYCLFYYKDSREEAVLGSIPLPSYVISPVAPEDRISRKYSFKAVHTGMRALIYNSSTAGSQAEQSGMRTYYFSADTQEDMNAWVRAMNQAAQVLSRSSLKRDMEKVERQAVPQANHTESCHECGRVGPGHTRDCPHRGHDDIVNFERQEQEGEQYRSQRDPLEGKRDRSKARSPYSPAEEDALFMDLPTGPRGQQAQPQRAEKNGMLPASYGPGEQNGTGGYQRAFPPRTNPEKHSQRKSNLAQVEHWARAQKGDSRSLPLDQTLPRQGPGQSLSFPENYQTLPKSTRHPSGGSSPPPRNLPSDYKYAQDRASHLKMSSEERRAHRDGTVWQLYEWQQRQQFRHGSPTAPICLGSPEFTDQGRSRSMLEVPRSISVPPSPSDIPPPGPPRVFPPRRPHTPAERVTVKPPDQRRSVDISLGDSPRRARGHAVKNSSHVDRRSMPSMGYMTHTVSAPSLHGKSADDTYLQLKKDLEYLDLKMTGRDLLKDRSLKPVKIAESDTDVKLSIFCEQDRVLQDLEDKIRALKENKDQLESVLEVLHRQMEQYRDQPQHLEKIAYQQKLLQEDLVHIRAELSRESTEMENAWNEYLKLENDVEQLKQTLQEQHRRAFFFQEKSQIQKDLWRIEDVTAGLSANKENFRILVESVKNPERKTVPLFPHPPVPSLSTSESKPPPQPSPPTSPVRTPLEVRLFPQLQTYVPYRPHPPQLRKVTSPLQSPTKAKPKVEDEAPPRPPLPELYSPEDQPPAVPPLPREATIIRHTSVRGLKRQSDERKRDRELGQCVNGDSRVELRSYVSEPELATLSGDMAQPSLGLVGPESRYQTLPGRGLSGSTSRLQQSSTIAPYVTLRRGLNAESSKATFPRPKSALERLYSGDHQRGKMSAEEQLERMKRHQKALVRERKRTLGQGERTGLPSSRYLSRPLPGDLGSVC				binds	no binding	no binding	binds	binds	binds	no binding	binds
